Results on 21 molecules are retold here after the supplement of paper PMC4604168 (melanoma cell lines).

Some test systems named below: A101D; A2058; A375; 501Mel.
Holding throughout (assay): cell count relative to DMSO control; melanoma cells; higher = more viable cells
Common to all, as to conditions: library dose: standard library concentration; 72 h

Each structure is given as a SMILES string. The list shows a part of the results. Most values come without repeats; read them as rough.
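Further: cells treated in 1,536-well plates, then fixed and DAPI-stained, with nuclei counted from automated high-throughput microscope images.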

With `CC(=O)O[C@@]12CO[C@@H]1C[C@H](O)[C@@]1(C)C(=O)[C@H](O)C3=C(C)[C@@H](OC(=O)[C@H](O)[C@@H](NC(=O)OC(C)(C)C)c4ccccc4)C[C@@](O)([C@@H](OC(=O)c4ccccc4)[C@H]21)C3(C)C` [Docetaxel] + CC1(C)NC(=O)N(c2ccc([N+](=O)[O-])c(C(F)(F)F)c2)C1=O [nilutamide] (first compound 0.0005 µM, partner dose 5 µM), the figures for the cell count in the assay with A101D, in the assay with A2058 and in the assay with A375 were 37.4%, 3.21% and 71.9%, respectively.

Take `Nc1nc(F)nc2c1ncn2[C@@H]1O[C@H](CO)[C@@H](O)[C@@H]1O` [fludarabine] + CCc1ccc(CCOc2ccc(CC3SC(=O)NC3=O)cc2)nc1 [pioglitazone] (first compound 1 µM, partner dose 10 µM): the cell count worked out at 2.9% in the assay on 501Mel, 111% in the assay on A101D, 84.8% in the assay with A2058 and 30.8% in the assay on A375.

With `CC(=O)c1c(C)c2cnc(Nc3ccc(N4CCNCC4)cn3)nc2n(C2CCCC2)c1=O` [palbociclib] + CC(C)CCN1c2nc(Nc3cc(F)c(O)c(F)c3)ncc2N(C)C(=O)C1C [BID1870] (first compound 0.2 µM, partner dose 1 µM), the cell count in the assay with 501Mel was determined as 62.9%; with A101D it was 55.7%; in the assay on A2058, 103%; with A375, 62.7%.

Take `Nc1ncn([C@H]2C[C@H](O)[C@@H](CO)O2)c(=O)n1` [decitabine] + NCC(=O)Nc1ccc(-n2nc(C(F)(F)F)cc2-c2ccc3c(ccc4ccccc43)c2)cc1 [OSU03012] (first compound 0.5 µM, partner dose 5 µM): the cell count with A101D amounted to 57.1%; in the assay on A2058 it was 82%; in the assay on A375 it was 40.7%.

As to `CC(=O)c1c(C)c2cnc(Nc3ccc(N4CCNCC4)cn3)nc2n(C2CCCC2)c1=O` [palbociclib] + CCCCCCCCCCCC1=C(O)C(=O)C=C(O)C1=O [Embelin] (first compound 0.2 µM, partner dose 6 µM), the cell count stood at 43.7% with 501Mel, 53.5% with A101D, 110% in the assay with A2058 and 67.5% in the assay with A375.

`CC(=O)O[C@@]12CO[C@@H]1C[C@H](O)[C@@]1(C)C(=O)[C@H](O)C3=C(C)[C@@H](OC(=O)[C@H](O)[C@@H](NC(=O)OC(C)(C)C)c4ccccc4)C[C@@](O)([C@@H](OC(=O)c4ccccc4)[C@H]21)C3(C)C` [Docetaxel] + CN(NC(=O)CC(=O)NN(C)C(=S)c1ccccc1)C(=S)c1ccccc1 [STA4783] (first compound 0.0005 µM, partner dose 0.03 µM): the cell count in the assay with A101D is 31.3%; in the assay on A2058, 4.74%; in the assay with A375, 69.7%.

For `Nc1ncn([C@H]2C[C@H](O)[C@@H](CO)O2)c(=O)n1` [decitabine] + COCC[n+]1c2c(n(Cc3cnccn3)c1C)C(=O)c1ccccc1C2=O [YM155] (first compound 0.5 µM, partner dose 0.002 µM), the cell count in the assay with A101D turned out to be 66.3%; with A2058, 18.9%; in the assay with A375 it was 70%.

On to `CC(=O)O[C@@]12CO[C@@H]1C[C@H](O)[C@@]1(C)C(=O)[C@H](O)C3=C(C)[C@@H](OC(=O)[C@H](O)[C@@H](NC(=O)OC(C)(C)C)c4ccccc4)C[C@@](O)([C@@H](OC(=O)c4ccccc4)[C@H]21)C3(C)C` [Docetaxel] + O=C(O)c1ccc(-c2c[nH]c3ncc(-c4ccccc4)cc23)cc1C1CCCC1 [GSK650394] (first compound 0.0005 µM, partner dose 0.8 µM), for which the cell count with A101D is 60.6%; in the assay with A2058 it was 8.81%; in the assay on A375, 57.8%.

As for `Nc1nc(F)nc2c1ncn2[C@@H]1O[C@H](CO)[C@@H](O)[C@@H]1O` [fludarabine] + CC(=O)c1c(C)c2cnc(Nc3ccc(N4CCNCC4)cn3)nc2n(C2CCCC2)c1=O [palbociclib] (first compound 1 µM, partner dose 0.2 µM), the cell count came out at 83% in the assay on A101D, 99.9% in the assay with A2058 and 22.2% with A375.

Consider `CO[C@H]1C[C@@H]2CC[C@@H](C)[C@@](O)(O2)C(=O)C(=O)N2CCCC[C@H]2C(=O)O[C@H]([C@H](C)C[C@@H]2CC[C@@H](OCCO)[C@H](OC)C2)CC(=O)[C@H](C)/C=C(\C)[C@@H](O)[C@@H](OC)C(=O)[C@H](C)C[C@H](C)/C=C/C=C/C=C/1C` [everolimus] + Cc1cc(N2CCOCC2)cc2[nH]c(-c3c(NC[C@@H](O)c4cccc(Cl)c4)cc[nH]c3=O)nc12 [BMS536924] (first compound 0.1 µM, partner dose 1 µM), for which the cell count in the assay on A101D was found to be 69.7%; with A2058 it was 69.5%; with A375 it was 96.3%.

`CO[C@H]1C[C@@H]2CC[C@@H](C)[C@@](O)(O2)C(=O)C(=O)N2CCCC[C@H]2C(=O)O[C@H]([C@H](C)C[C@@H]2CC[C@@H](OCCO)[C@H](OC)C2)CC(=O)[C@H](C)/C=C(\C)[C@@H](O)[C@@H](OC)C(=O)[C@H](C)C[C@H](C)/C=C/C=C/C=C/1C` [everolimus] + Nc1cccc2c1CN(C1CCC(=O)NC1=O)C2=O [lenalidomide] (first compound 0.1 µM, partner dose 5 µM): the cell count in the assay with A101D stood at 95.5%; in the assay on A2058, 65.3%; in the assay with A375, 97.2%.

Consider `Nc1nc(F)nc2c1ncn2[C@@H]1O[C@H](CO)[C@@H](O)[C@@H]1O` [fludarabine] + C=CCNC1=C2C[C@@H](C)C[C@H](OC)[C@H](O)[C@@H](C)/C=C(\C)[C@H](OC(N)=O)[C@@H](OC)/C=C\C=C(/C)C(=O)NC(=CC1=O)C2=O [Tanespimycin] (first compound 1 µM, partner dose 0.01 µM), for which the cell count with A101D was found to be 84.9%; with A2058, 86.2%; with A375, 39.8%.

Consider `CC(=O)c1c(C)c2cnc(Nc3ccc(N4CCNCC4)cn3)nc2n(C2CCCC2)c1=O` [palbociclib] + COc1cc(Nc2ncc(F)c(Nc3ccc4c(n3)NC(=O)C(C)(C)O4)n2)cc(OC)c1OC [Tamatinib] (first compound 0.2 µM, partner dose 2 µM), for which the cell count in the assay with A101D is 48.1%; with A2058, 73.5%; with A375, 68.8%.

On to `CC(=O)c1c(C)c2cnc(Nc3ccc(N4CCNCC4)cn3)nc2n(C2CCCC2)c1=O` [palbociclib] + CC1(C)NC(=O)N(c2ccc([N+](=O)[O-])c(C(F)(F)F)c2)C1=O [nilutamide] (first compound 0.2 µM, partner dose 5 µM), for which the cell count with A101D was determined as 60.9%; in the assay on A2058 it was 87.1%; in the assay with A375, 76.1%.

Take `Nc1ccn([C@@H]2O[C@H](CO)[C@@H](O)C2(F)F)c(=O)n1` [gemcitabine] + O=C(O)c1ccc(-c2c[nH]c3ncc(-c4ccccc4)cc23)cc1C1CCCC1 [GSK650394] (first compound 0.002 µM, partner dose 0.8 µM): the results for the cell count in the assay with A101D, in the assay with A2058 and with A375 were 83.8%, 67.8% and 89.7%, respectively.

For the molecule `Nc1ccn([C@@H]2O[C@H](CO)[C@@H](O)C2(F)F)c(=O)n1` [gemcitabine] + CC(C)(C)c1cnc(CSc2cnc(NC(=O)C3CCNCC3)s2)o1 [SNS-032] (first compound 0.002 µM, partner dose 0.05 µM), the values for the cell count in the assay on A101D, with A2058 and in the assay on A375 were 72%, 56.4% and 66.5%, respectively.

`Nc1ccn([C@@H]2O[C@H](CO)[C@@H](O)C2(F)F)c(=O)n1` [gemcitabine] + COc1cc2c(Oc3ccc4[nH]c(C)cc4c3F)ncnc2cc1OCCCN1CCCC1 [cediranib] (first compound 0.002 µM, partner dose 2 µM): the cell count in the assay on A101D is 90.3%; in the assay on A2058, 58.9%; in the assay on A375, 110%.

In the case of `CC(=O)c1c(C)c2cnc(Nc3ccc(N4CCNCC4)cn3)nc2n(C2CCCC2)c1=O` [palbociclib] + Cn1cncc1[C@@](N)(c1ccc(Cl)cc1)c1ccc2c(c1)c(-c1cccc(Cl)c1)cc(=O)n2C [tipifarnib] (first compound 0.2 µM, partner dose 0.05 µM), the results for the cell count in the assay on A101D, with A2058 and in the assay on A375 were 70.1%, 85.6% and 57.2%, respectively.

In the case of `Nc1nc(F)nc2c1ncn2[C@@H]1O[C@H](CO)[C@@H](O)[C@@H]1O` [fludarabine] + C#Cc1cccc(Nc2ncnc3cc(OCCOC)c(OCCOC)cc23)c1 [erlotinib] (first compound 1 µM, partner dose 4 µM), the cell count in the assay with A101D came out at 65.1%; in the assay on A2058 it was 68.8%; in the assay on A375, 30.7%.

As for `CO[C@H]1C[C@@H]2CC[C@@H](C)[C@@](O)(O2)C(=O)C(=O)N2CCCC[C@H]2C(=O)O[C@H]([C@H](C)C[C@@H]2CC[C@@H](OCCO)[C@H](OC)C2)CC(=O)[C@H](C)/C=C(\C)[C@@H](O)[C@@H](OC)C(=O)[C@H](C)C[C@H](C)/C=C/C=C/C=C/1C` [everolimus] + O=C(CCCCCCC(=O)Nc1ccccc1)NO [vorinostat] (first compound 0.1 µM, partner dose 0.4 µM), the cell count is 76.7% in the assay on A101D, 91.4% in the assay with A2058 and 90.4% in the assay on A375.

As for `Nc1nc(F)nc2c1ncn2[C@@H]1O[C@H](CO)[C@@H](O)[C@@H]1O` [fludarabine] + NCC(=O)Nc1ccc(-n2nc(C(F)(F)F)cc2-c2ccc3c(ccc4ccccc43)c2)cc1 [OSU03012] (first compound 1 µM, partner dose 5 µM), the cell count in the assay on A101D is 74%; in the assay with A2058, 72.6%; in the assay on A375 it was 19.9%.
